# This is one part of the list.
# Tested on: PfAP2-HC AP2 domain (GST-tagged)
# Assay: gcPBM binding intensity (ln(normalized median fluorescence intensity)); higher = stronger DNA binding
# Summary of the method: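 Probes on an Agilent 4 × 180k array were primer-extended, double-stranded and 36 bp long, taken from intergenic genomic regions, with negative controls added. GST-tagged P. falciparum DNA-binding domains from E. coli, about 25 μg on average, were applied to the array for 1 h in 1× PBS containing 1% milk, 0.2 mg/ml BSA, 0.5% salmon testes DNA and 0.03% Triton X-100. Binding intensity, obtained after Alexa488 anti-GST antibody detection and a 488 nm scan, is the highest Masliner-normalised natural-log median intensity across replicate spots of either probe orientation.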
row,Sequence,gcPBM binding intensity (ln)
1,AGGAAAAAAAAAATGACACACATATTTGAATTAAAA [CACACA_site1352],9.8
2,TATTAATAAAAGCATTGTACAGTAATAAATAAATAA [XGTACX_site2924],9.6
3,TATATATATAAACACACACACACCAAAGCGTAGCGC [CACACA_site7903],10.4
4,AGCCATTAATTCTCTACACACCTTTATGTTATTTAG [CACACA_site3635],9.89
5,ATATTAAAATGAAAATATAAAAAAAAAAAAAAAAAA [CACACA_negctrl_site1559],9.01
6,CAATCAAATAGACACACACACACCTAAACATAAAAG [CACACA_site7322],11.1
7,AAGGAAATATAATATACACACATAAGTGTACTTCTA [CACACA_site6079],9.81
8,TTGTATTCATAACAACGTACATATTTTGTAACTAAA [XGTACX_site4029],9.49
9,TTTCAAACAAAAAGACGTACACTGAAGTTATCCGTC [XGTACX_site8824],9.24
10,ATACAAATTTATATTTCACACATTATTATATACTTA [CACACA_site6034],9.82
11,TCTGAAAATTAGAAAAGTACAAAATGGTATAGGAAA [XGTACX_site4396],9.65
12,TGTATTATATATGTGTGTACATATTTTTTTTTTTTT [XGTACX_site3351],9.85
13,ATATATATATATAAATGTACAGGCTTATCTCTTATT [XGTACX_site1828],9.75
14,AAATTATTTCAAATGTTGCACTAAAAATAAAATTAT [GTGCAC_site9460],9.46
15,TTTTATCAATAAATTCGTACACATGAACTAGAGAGT [XGTACX_site5758],9.5
16,TACATTCTAATAATTGCACACTGGTTATTAAAAGGA [CACACA_site1614],9.6
17,TTTTTATTTATATTTCATTGAAGTTAAATTATTTTA [XGTACX_negctrl_site575],9.41
18,ATTAGTATATTTCTCTGTACTTACATTAAAATATAA [XGTACX_site2217],9.6
19,AATTTAATATTCATCTCTAAAGCTATAACAATTACT [CACACA_negctrl_site1079],9.57

row,Sequence,gcPBM binding intensity (ln)
1,TCCTTAAAATATGGTTGTACGTACATCCTAGGTGTT [XGTACX_site7068],9.55
2,AAAAAAAAGAAAAAAAAAAAAAAAAAAAAAAAAAAA [CACACA_negctrl_site489],8.91
3,CGCACACGCAGACACACACACACATATAAATAAATA [CACACA_site7101],10.8
4,GGTGAAATTATTTCTACATGCAGAAATAATTAATTA [TGCATGCA_site194],9.48
5,TTTTTTTTTTTGGCTAGTACATATGTATTTAAAATG [XGTACX_site7770],9.59
6,AATTTAATATAATGCACACATAAAAAAAAAATCAAA [CACACA_site1],9.85
7,AAATTATTTCTTTGCGCATGTAGCTTTTATACTATT [TGCATGCA_site819],10.3
8,ACATAAATAATAAAAACACACATATGTACCTATATA [CACACA_site6982],9.85
9,AATACATGCTAAAAACGTACACGTATAAAATTATAT [XGTACX_site3169],9.69
10,AAGAAAATATAAAATGCACACTATAAATTGTATATA [CACACA_site7928],9.78
11,AAAAAAAAAAAAAATTGTACATTAAATTAAAAGAAA [XGTACX_site8708],9.42
12,AAAAAAAAAAATACTTGTACTTATATAATATATTAT [XGTACX_site8333],9.69
13,TGTTGTTCCAATTTTTGTACATAAAACATATATATA [XGTACX_site5719],9.61
14,AATATTTATTTAATTTCACACAGGTCTTTTTTTTTT [CACACA_site5188],9.7
15,TTGTTCTTATTTCATTTTTATATGATATTTCATTAT [CACACA_negctrl_site1619],9.87
16,GAGAAAAGGAAATAACGTACACATATGCATATCCAA [XGTACX_site5858],9.7
17,GTGTTCTTGTTATACACACACATATATATATATATA [CACACA_site1032],10
18,TATTTATTGTGACACTTTTATTATTTTATGATAAAA [CACACA_negctrl_site37],9.59
19,TGAAAGAAGCATAAATGTACACACATATTTATATAT [XGTACX_site2645],9.86

row,Sequence,gcPBM binding intensity (ln)
1,GAGAGGTCAGTTCACAGTACCCAGAAACTCTACGAG [XGTACX_site2559],9.31
2,GTAATATTTTATAGTAGTACATATTTTTATTATTTT [XGTACX_site3333],9.64
3,ATATATATATATATATGTACATATTTTTGTTTGATG [XGTACX_site51],9.66
4,CAGATATTCATATAAACACACATACAAATTATGTAT [CACACA_site4258],9.78
5,TATATATATAATTAAGCATGCTAGAAACCTTTGAAA [TGCATGCA_site489],9.61
6,TACAATCTAAAATACACACGCACACCGAAAAAAAAA [CACACA_site3520],10.6
7,ATATATATATATATTGCACACACAATTATTATTATT [CACACA_site8721],9.93
8,TGAAGAATATTTTTCACACATATATATATATATATA [CACACA_site6080],9.45
9,GACAAACAATATGAATGTACATAAAAATATAACTAA [XGTACX_site1167],9.96
10,TGAATATATAAATATGCACACTTCTATTATAAATAA [CACACA_site5796],9.65
11,TAACATATAAGTGTGTGTACGTACTGCGTATAATAT [XGTACX_site8597],9.97
12,TTTTAACATATAAGTACACACATATAATCAATCATA [CACACA_site2325],9.77
13,ATAAACGTTTTTGAAAGTACATATCATTCATTTGAT [XGTACX_site200],9.56
14,ATATAATATTTATATGTACACACCTTAATCCTTAAA [CACACA_site3555],9.7
15,AAAAAAATTAATATGTCAGCACATATATACATACAT [GTGCAC_negctrl_site110],9.77
16,TATATATATAAAAAAGCACACATACATACATACATA [CACACA_site8196],10.2
17,CCTTATAAATACTGCACACATAAAATATATATTATC [CACACA_site2806],9.83
18,TTTTATCGTTTTTTTTTTTTTTTTTTTTTTTTTTTT [CACACA_negctrl_site1309],9.37

# — the supplement of paper PMC11417369
